# Results taken from the antibiotic and cytotoxicity screens of Wong et al. (2023).
# The list shows a part of the results.
# Tests used:
# HSkMC = human skeletal muscle cells; experiment: cytotoxicity call (relative viability < 0.9); conditions: 10 µM
# HepG2 = experiment: cytotoxicity call (relative viability < 0.9); conditions: 10 µM
# S. aureus RN4220 = experiment: growth inhibition call (relative growth <= 0.2); conditions: 50 µM
Compound,cytotoxicity call (HSkMC),cytotoxicity call (HepG2),growth inhibition call (S. aureus RN4220)
C[C@H](O)C#Cc1ccc2c(c1)O[C@@H](CN(C)C(=O)Cc1ccccn1)[C@H](C)CN([C@H](C)CO)S2(=O)=O,inactive,inactive,inactive
C[C@H](CO)N1C[C@H](C)[C@@H](CN(C)C(=O)Nc2ccc(F)cc2)Oc2ccc(NC(=O)CCN3CCOCC3)cc2C1=O,inactive,inactive,inactive
CN(C)C(=O)[C@H]1C[C@@H]2CCN(S(C)(=O)=O)C[C@H]2O1,inactive,inactive,inactive
C[C@@H]1CCCCO[C@@H](CN(C)Cc2ccccc2)[C@@H](C)CN([C@H](C)CO)C(=O)c2cc(NS(=O)(=O)c3ccc(F)cc3)ccc2O1,inactive,inactive,inactive
C[C@@H]1CN([C@H](C)CO)C(=O)c2cc(NS(=O)(=O)c3ccc(Cl)cc3)ccc2O[C@H]1CN(C)S(=O)(=O)c1cn(C)cn1,inactive,inactive,inactive
COc1ccc(NC(=O)Nc2ccc3c(c2)C(=O)N([C@H](C)CO)C[C@H](C)[C@@H](CN(C)S(=O)(=O)c2ccc(C)cc2)OCCCC[C@H](C)O3)cc1,inactive,inactive,inactive
C[C@H]1CN([C@@H](C)CO)C(=O)c2cccc(NC(=O)Nc3ccc(F)cc3)c2O[C@H]1CN(C)S(C)(=O)=O,inactive,inactive,inactive
C[C@H](CO)N1C[C@H](C)[C@H](CN(C)Cc2ccc(C(F)(F)F)cc2)OCCCC[C@H](C)Oc2ccc(NS(=O)(=O)c3cn(C)cn3)cc2C1=O,inactive,inactive,inactive
C[C@@H]1CN([C@@H](C)CO)C(=O)c2cc(NC(=O)Nc3cccc4ccccc34)ccc2O[C@@H](C)CCCCO[C@@H]1CN(C)Cc1ccc(C(=O)O)cc1,inactive,inactive,inactive
COc1ccc(C#Cc2ccc3c(c2)O[C@H](CN(C)C(=O)CN2CCOCC2)[C@@H](C)CN([C@@H](C)CO)S3(=O)=O)cc1,inactive,inactive,inactive
COc1ccc(NC(=O)N(C)C[C@@H]2OCCCC[C@H](C)Oc3ccc(NS(=O)(=O)c4cccs4)cc3C(=O)N([C@@H](C)CO)C[C@@H]2C)cc1,inactive,inactive,inactive
COc1ccc(NC(=O)Nc2ccc3c(c2)CC(=O)N([C@@H](C)CO)C[C@@H](C)[C@H](CN(C)S(C)(=O)=O)O3)cc1,inactive,inactive,inactive
C=C(C)C1CC=C(CO)CC1 (stereo not given),inactive,inactive,inactive
Cc1ccc(S(=O)(=O)N(C)C[C@H]2Oc3ccc(NS(=O)(=O)c4ccc(F)cc4)cc3CC(=O)N([C@@H](C)CO)C[C@@H]2C)cc1,inactive,active,inactive
Nc1cccc2c(=O)[nH][nH]c(=O)c12,inactive,inactive,inactive
COc1ccc(S(=O)(=O)N(C)C[C@H]2Oc3ccc(N(C)C)cc3C(=O)N([C@@H](C)CO)C[C@H]2C)cc1,inactive,inactive,inactive
C[C@@H]1CN([C@H](C)CO)C(=O)Cc2cc(NC(=O)Nc3ccc(C(F)(F)F)cc3)ccc2O[C@H]1CN(C)C(=O)Nc1ccc2c(c1)OCO2,inactive,inactive,inactive
O=C(O)CC(O)(CC(=O)O)C(=O)O,inactive,inactive,inactive
CC(C)OC(=O)[C@@H](C)Nc1n[nH]c(=O)[nH]c1=O,inactive,inactive,inactive
C[C@@H]1CN([C@H](C)CO)C(=O)c2cc(NS(C)(=O)=O)ccc2O[C@@H]1CN(C)S(=O)(=O)c1ccccc1,inactive,inactive,inactive
Cc1ccc(S(=O)(=O)Nc2ccc3c(c2)C(=O)N([C@@H](C)CO)C[C@H](C)[C@@H](CN(C)C(=O)Nc2ccccc2)OCCCC[C@H](C)O3)cc1,inactive,active,inactive
CC(C)NC(=O)Nc1cccc2c1O[C@H](CN(C)S(=O)(=O)c1ccc(F)cc1)[C@H](C)CN([C@@H](C)CO)C2=O,inactive,inactive,inactive
C[C@@H]1CCCCO[C@@H](CN(C)C(=O)CCC(F)(F)F)[C@H](C)CN([C@H](C)CO)C(=O)c2cc(NS(=O)(=O)c3ccc(F)cc3)ccc2O1,inactive,inactive,inactive
O=C(C[C@@H]1CC[C@@H]2[C@H](COC[C@H](O)CN2S(=O)(=O)c2ccc(Cl)cc2)O1)NCC1CCCCC1,inactive,inactive,inactive
CC(C)NC(=O)Nc1ccc2c(c1)CC(=O)N([C@H](C)CO)C[C@@H](C)[C@H](CN(C)S(=O)(=O)c1ccc(Cl)cc1)O2,inactive,inactive,inactive
C[C@@H]1CN([C@@H](C)CO)C(=O)c2cc(NS(C)(=O)=O)ccc2O[C@@H]1CN(C)C(=O)Nc1ccc2c(c1)OCO2,inactive,inactive,inactive
COCC(=O)Nc1ccc2c(c1)OC[C@@H](C)N(Cc1cccc(F)c1)C[C@H](C)[C@H](OC)CN(C)C2=O,inactive,inactive,inactive
COc1cccc(S(=O)(=O)Nc2ccc3c(c2)[C@H]2C[C@H](CC(=O)NCCc4ccccc4)O[C@@H](CO)[C@H]2O3)c1,inactive,inactive,inactive

Compound,cytotoxicity call (HSkMC),cytotoxicity call (HepG2),growth inhibition call (S. aureus RN4220)
C[C@@H](CO)N1CC[C@H](CN(C)Cc2ccc(Oc3ccccc3)cc2)Oc2c(NC(=O)c3ccncc3)cccc2C1=O,inactive,inactive,inactive
C[C@@H]1CN([C@@H](C)CO)C(=O)c2c(c3ccccc3n2C)-c2ccccc2CO[C@@H]1CN(C)Cc1ccc(O)cc1,inactive,inactive,inactive
Cc1ccc(F)c(S(=O)(=O)N2[C@@H]3CC[C@@H](C3)[C@H]2c2nc3cccc(OCc4ccc(F)cc4)c3[nH]2)c1,inactive,active,inactive
COC(=O)C[C@@H]1CC[C@@H]2[C@H](COC[C@@H](O)CN2S(=O)(=O)c2cn(C)cn2)O1,inactive,inactive,inactive
C[C@@H]1CCCCO[C@H](CN(C)S(=O)(=O)c2ccc(Cl)cc2)[C@@H](C)CN([C@H](C)CO)C(=O)c2cc(NC(=O)CCCCCC(=O)Nc3ccccc3N)ccc2O1,inactive,inactive,inactive
Nc1cc(CO)ccn1,inactive,inactive,inactive
C=CC[C@]1(C(=O)NCCN2CCOCC2)COC(c2ccc(OCCCO)cc2)=N1,inactive,inactive,inactive
CC[C@@H](O[Si](C#C[Si](C(C)C)(C(C)C)C(C)C)(C(C)C)C(C)C)c1cn([C@H](CO)Cc2ccccc2)nn1,inactive,inactive,inactive
Nc1nnc(CNC(=O)c2ccccc2)[nH]1,inactive,inactive,inactive
Cc1ccc(S(=O)(=O)N(C)C[C@@H]2OCCCC[C@H](C)Oc3ccc(NS(C)(=O)=O)cc3C(=O)N([C@H](C)CO)C[C@@H]2C)cc1,inactive,inactive,inactive
C[C@H](CO)N1C[C@H](C)[C@H](CN(C)C(=O)c2ccccc2)OCCCC[C@H](C)Oc2ccc(NS(=O)(=O)c3ccc(F)cc3)cc2C1=O,inactive,inactive,inactive
Cc1cc(O)c2c(c1)C(=O)c1cc(O)cc(O)c1C2=O,inactive,inactive,inactive
C[C@H](CO)N1C[C@H](C)[C@@H](CN(C)C(=O)C2CCOCC2)Oc2ncc(C#CC3(O)CCCC3)cc2C1=O,inactive,inactive,inactive
COc1ccc(S(=O)(=O)N(C)C[C@@H]2Oc3ccc(NC(=O)C4CC4)cc3CC(=O)N([C@@H](C)CO)C[C@H]2C)cc1,inactive,inactive,inactive
O=C(C[C@@H]1C=C[C@@H](NC(=O)c2ccc3c(c2)OCO3)[C@H](CO)O1)NCc1ccc(Oc2ccccc2)cc1,inactive,inactive,inactive
C[C@@H]1CN([C@H](C)CO)C(=O)c2cc(NC(=O)NC3CCCCC3)ccc2O[C@@H](C)CCCCO[C@@H]1CN(C)C(=O)Nc1ccc(F)cc1,inactive,inactive,inactive
COCCNC(=O)C[C@@H]1C[C@H]2c3cc(NC(=O)CN(C)C)ccc3O[C@H]2[C@@H](CO)O1,inactive,inactive,inactive
Cc1noc(C)c1S(=O)(=O)N(C)C[C@H]1Oc2ccc(NS(=O)(=O)c3cccs3)cc2C(=O)N([C@H](C)CO)C[C@H]1C,inactive,inactive,inactive
C[C@@H]1CN([C@@H](C)CO)C(=O)Cc2cc(NS(=O)(=O)c3ccc(Cl)cc3)ccc2O[C@@H]1CN(C)Cc1ccc(C(F)(F)F)cc1,active,active,inactive
COc1ccc(S(=O)(=O)N(C)C[C@@H]2Oc3ccc(NC(=O)Cn4cnnn4)cc3CC(=O)N([C@H](C)CO)C[C@@H]2C)cc1,inactive,inactive,inactive
Cc1ccc(S(=O)(=O)Nc2ccc3c(c2)C(=O)N([C@@H](C)CO)C[C@H](C)[C@@H](CN(C)Cc2ccc(C(=O)Nc4ccccc4N)cc2)OCCCC[C@@H](C)O3)cc1,inactive,inactive,inactive
COc1cccc(S(=O)(=O)N(C)C[C@@H]2Oc3ncc(Br)cc3C(=O)N([C@H](C)CO)C[C@@H]2C)c1,inactive,inactive,inactive
COc1ccc(S(=O)(=O)Nc2cccc3c2O[C@H](CN(C)Cc2ccc(Oc4ccccc4)cc2)[C@@H](C)CN([C@H](C)CO)C3=O)cc1,inactive,inactive,inactive
COc1ccc(S(=O)(=O)N(C)C[C@@H]2Oc3c(NS(=O)(=O)c4ccc(F)cc4)cccc3C(=O)N([C@@H](C)CO)C[C@H]2C)cc1,inactive,inactive,inactive
C[C@@H]1CN([C@@H](C)CO)C(=O)c2cccc(NC(=O)c3cnccn3)c2O[C@@H]1CN(C)S(=O)(=O)c1ccccc1,inactive,inactive,inactive
C[C@H](CO)N1C[C@H](C)[C@H](CN(C)Cc2ccncc2)Oc2ccc(NC(=O)Nc3cccc4ccccc34)cc2C1=O,inactive,inactive,inactive
C[C@@H]1CN([C@@H](C)CO)C(=O)Cc2cc(NS(=O)(=O)c3cn(C)cn3)ccc2O[C@@H]1CN(C)CC1CC1,inactive,inactive,inactive
